Whole data set: some 33,000 sequences, median “E-score (-0.5 to 0.5)” near -0.011, cut for the highest 2% near 0.28. The list shows a part of the results.
Each sequence was assayed against T1, Gcr1 (UniProt P07261) (assay: PBM E-score (8-mer binding enrichment) (E-score (-0.5 to 0.5)); higher = stronger / more preferred TF binding; most listed sequences are background and not binding sites). Conditions: protein concentration: 100 nM; construct: GST-full length.
T1 sequence: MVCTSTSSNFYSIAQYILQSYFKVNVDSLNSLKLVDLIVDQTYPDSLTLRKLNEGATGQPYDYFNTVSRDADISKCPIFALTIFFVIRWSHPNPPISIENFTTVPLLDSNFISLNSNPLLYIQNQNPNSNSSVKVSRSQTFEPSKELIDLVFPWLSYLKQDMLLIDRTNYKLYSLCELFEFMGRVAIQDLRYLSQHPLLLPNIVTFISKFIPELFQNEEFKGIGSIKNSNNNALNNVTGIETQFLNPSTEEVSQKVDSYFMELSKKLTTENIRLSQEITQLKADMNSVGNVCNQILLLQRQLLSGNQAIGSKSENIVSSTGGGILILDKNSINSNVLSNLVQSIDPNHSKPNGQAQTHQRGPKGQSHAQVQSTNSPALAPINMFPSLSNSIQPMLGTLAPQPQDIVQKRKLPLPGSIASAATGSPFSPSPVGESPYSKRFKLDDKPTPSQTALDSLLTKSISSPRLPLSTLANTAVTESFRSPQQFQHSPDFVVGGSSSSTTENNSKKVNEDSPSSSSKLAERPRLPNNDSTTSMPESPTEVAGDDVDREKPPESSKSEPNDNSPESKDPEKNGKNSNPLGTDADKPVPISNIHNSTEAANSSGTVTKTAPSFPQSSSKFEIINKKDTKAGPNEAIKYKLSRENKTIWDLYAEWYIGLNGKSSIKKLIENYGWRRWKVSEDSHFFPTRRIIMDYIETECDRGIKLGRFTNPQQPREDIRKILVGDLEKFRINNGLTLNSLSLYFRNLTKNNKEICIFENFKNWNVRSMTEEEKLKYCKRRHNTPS
Summary of the method: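 Universal all-10-mer Agilent arrays, fresh or stripped once, were converted to double-stranded form by primer extension. GST-tagged yeast transcription factors from PURExpress in vitro transcription/translation, full-length or DNA-binding domain only, were applied at about 100-200 nM and detected with fluorescent anti-GST. After masliner normalisation, the Universal PBM Analysis Suite scored each ungapped eight-base word together with its reverse complement by E-score.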

Sequence	PBM E-score
CCGTGGCA	-0.0521
AGCACCCG	0.282
GCGGCTCC	0.22
ACCTATTG	-0.0304
ATCACCCA	-0.0228
GGTTATTA	0.0421
GTACGACA	-0.0554
GGATCACC	-0.12
CTTAATTC	0.123
GACAGCGA	-0.198
ATATAGCG	0.0331
AGCACCAT	0.282
CTCCGTCC	-0.0374
CAACGTGC	0.0253
GAATCCAC	0.224
CATATCCG	-0.012
CGTGCAAG	-0.242
AGCTCTAT	-0.149
AGGTAAAC	-0.13
AACGCCCA	-0.00095
CACAGGGA	0.129
CGTTCGGA	-0.0395
CAGAAACC	0.193
CTCCACTC	0.022
CGCCTTAG	0.0337

Sequence	PBM E-score
AGCTGTCA	-0.125
AACGGCTC	0.0408
ACGCGTGA	0.187
ACTGTGGC	0.121
GGTAACTA	0.0673
CGGCCGGC	-0.163
AACGTACA	-0.164
CCTAAAAG	0.0659
CAGGAAAG	-0.0487
GGCAGTCA	-0.103
CAAGGCTG	-0.147
CGTGCGTC	0.0849
CATTCACC	-0.078
ATATCGCG	0.0825
AACGGAGA	-0.0758
CACAGGCA	0.125
CGTTGATC	-0.182
CCTAGCCC	-0.0765
AAAGATGT	0.107
GAGGAGCC	0.118
AAACTACT	0.0652
GACCGGTA	-0.00353
AGCGAGCT	-0.0498
CGCGTGAG	0.147
AGGTTCAC	-0.122

Sequence	PBM E-score
ACTCCAGG	0.0977
GCTAGTAA	0.215
AGTGTATA	-0.263
CAATCTAA	-0.181
GAGTTCGC	-0.122
GACGCCCC	0.0383
CCAGATGC	0.257
ATTCTCTA	-0.228
TAAGTCCA	-0.0398
ACACAAGT	-0.00802
TCGCCGAA	0.0743
CGTGTTTC	0.146
TCCTCCGA	-0.138
ATATCAGA	-0.0028
GTAGATAA	0.068
AATGAGAT	0.0913
AAGCGTAG	0.0218
ATAACCAG	-0.0278
ATCGCCAG	-0.0225
CCAAAGAC	0.0729
CAGCGACG	0.027
CAGGCATG	-0.00554
AACGATGT	-0.0499
AGCGATCC	-0.175
GCTCTGGA	0.152

Sequence	PBM E-score
AGCTCCCT	0.0321
ATGCAGGA	0.207
CATAGAAA	0.114
GTTACGTA	-0.102
GCTAGACC	-0.176
AGTTACCA	-0.0819
CATGTGCA	-0.0549
AGCATGGC	-0.215
ACGGAGGG	-0.192
CCTGTACA	0.0853
GGTAAATA	0.13
CTTAAGTA	0.0424
CCAATTCA	0.0362
ATACATAA	0.0469
GCCATATA	0.011
CCACACAG	-0.0371
GCGGGATA	0.0374
AGGAGACG	0.213
CGCAAGAC	-0.0974
CCGGTAGA	-0.0529
AATCGCTC	-0.149
AGAGCACA	0.042
TACGACCA	-0.11
ACCTATAT	0.194
CAACCAGG	-0.0681

Sequence	PBM E-score
AAGTTATG	-0.0312
ATCTACGA	0.0323
ACGTGAGT	-0.186
GAAGTATC	-0.128
ACTGGGAA	0.0642
GCTTTTGA	0.0765
CATCATGG	-0.076
CTCTTCAC	-0.0609
CCATCGGC	0.046
AATAATCA	0.118
CACGTGAC	-0.0941
CAATTAGA	0.215
GCCGGTTA	0.0616
GCACGAGA	-0.157
AGCTCCAG	0.0423
CATTTTAA	0.252
CCGCGATA	0.0744
GACTTCAA	-0.0566
CAAGTCGA	-0.0784
AGCCCGAA	0.17
CGCACGAA	0.11
AGAGAACT	-0.096
ACAGCGTG	-0.00712
ACTTGGTG	0.0131
CCGGTGTC	0.0561

Sequence	PBM E-score
GGTCGCTA	0.145
AGGACGCA	0.0414
CCCCGCGG	0.0127
ACCACTGC	0.156
TCGCTCCA	0.0268
GCACAACA	-0.0968
AAGCTATG	-0.255
ACTCGGAT	0.0892
AAGAGCAG	-0.031
GATCGTCA	-0.249
GGTTTATA	-0.0162
ATCGTCGA	-0.154
GCTAGAAC	-0.0293
CCTGGCCA	-0.203
AGGTCAAC	-0.147
GTCTCTCA	-0.0771
ATAATACC	0.201
CCTGGAAC	-0.0042
CCAGATCA	0.0866
GGGTGCAC	-0.0632
CGTCCGCC	0.0547
GATGCGGA	0.033
AAATGTTA	0.0988
CAAATTAG	0.124
GGTAATGA	-0.0267

Sequence	PBM E-score
AAGGATGG	-0.051
GGGCTGCA	-0.267
ATCGACCC	-0.0207
GGCTGTAC	-0.208
CGAATGCG	0.0429
TAGTCGCA	0.07
AAGAGGGC	-0.212
ACTGTCCC	0.0212
AACGCTAT	0.156
ACGATCCT	-0.0105
CTGATTTC	-0.0941
CAGGGCCA	-0.0563
CACACCCG	-0.0802
GCCAAAAC	0.128
TAATAAAA	0.146
CTCAGCCA	-0.23
AACGGATT	0.24
AGGTCCAA	0.0318
CAGGATAA	0.0948
CTCATTTA	0.0532
ATGCGGGG	-0.133
CCAGGAAC	0.054
CAATATTC	0.0894
AACTGAAG	-0.0474
AGACAGTC	-0.107

Sequence	PBM E-score
CCTCGGAG	-0.013
AGCCAGAA	0.13
GCAATGGC	-0.26
TCAAGGCA	-0.127
CAAGTGCC	-0.0408
GGGACACC	0.184
ACGTTGTA	-0.158
TACTGTGA	-0.0365
ACTGGGCG	0.1
ACGGTGCA	0.0874
CTCGGGAC	0.0214
CCGGCGGA	0.0634
CATCAGAG	-0.101
GCTTGAAC	-0.109
AGCAATCC	-0.187
CCGGACCG	-0.204
TACAAAGA	0.0361
ACCGATAG	-0.0662
CATGGTCC	-0.141
ATACTGCG	-0.113
AGTCACAA	0.0657
ATCCCATA	0.181
CAAGTTGG	0.0716
CCCGACAC	-0.129
CCAAGCGA	-0.199

Sequence	PBM E-score
ATGAGGAA	0.17
AAGCGCGG	0.0626
GCAAGCCC	-0.265
ATAGCAAA	0.0142
CATGCGGC	-0.0307
GTATGAGA	-0.0319
CCACTCAC	0.12
GACCGCGA	-0.133
CATCCTGC	-0.0356
GCGATTAC	-0.147
GGTACAGA	-0.138
CAAGATAG	-0.0951
CACTCTCC	-0.192
CCTTAATA	0.0869
ACTGGTGA	-0.0641
CCCCCCCA	-0.166
GATGCATA	0.156
AAGAGAGT	-0.209
AACCAGCA	0.0412

Reference: the supplement of paper PMC3334620
